For five molecules, binding results are on record in article PMC7025033.

The chains behind the UniProt entries cited, without tags or fusion partners. Where a name states a change or a piece, a line headed by the entry shows the natural chain unless it says otherwise. Residues count along the entry.
UniProt Q9ULZ3: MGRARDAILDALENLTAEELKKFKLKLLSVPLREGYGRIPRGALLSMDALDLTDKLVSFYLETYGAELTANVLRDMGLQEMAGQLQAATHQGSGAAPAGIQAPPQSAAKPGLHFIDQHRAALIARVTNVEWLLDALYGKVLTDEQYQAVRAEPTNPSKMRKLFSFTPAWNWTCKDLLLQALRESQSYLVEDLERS
UniProt Q9Y2G2, residues 446-536: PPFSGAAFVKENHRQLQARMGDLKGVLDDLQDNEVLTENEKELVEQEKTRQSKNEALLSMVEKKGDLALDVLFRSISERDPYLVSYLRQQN

Assay in all cases: split reporter; NanoBiT: sonicated, clarified PBS lysates of HEK 293T cells with the SmBiT fusion and with the LgBiT fusion, normalised for expression, mixed in equal volumes in 384-well plates; Nano-Glo Live Cell Reagent; relative luminescence
Experiment [1] deals with CARD domain of ASC (apoptosis-associated speck-like protein containing a CARD) (human) (UniProt Q9ULZ3).
The target of experiment [2] is CARD domain of caspase-1 (human) (UniProt P29466).
Experiment [3] addresses SmBiT-tagged full-length ASC (human) (UniProt Q9ULZ3).
The target in experiment [4] is T1, CARD domain of caspase-1 (human), P29466.
T1 chain: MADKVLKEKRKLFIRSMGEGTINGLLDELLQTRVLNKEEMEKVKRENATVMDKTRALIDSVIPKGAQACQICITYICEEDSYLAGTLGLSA
Particulars: remark: other sources report otherwise.

Results are given in words; binding and its absence hold for the method and conditions named. Binding seen in cells or lysates may run through a third protein. Some results given as binding are weak or reduced against the parent protein; the word gives no strength.

With “CARD domain of CARD8 (from UniProt Q9Y2G2 446-536) (domain or fragment)”, the binding entry in experiment [1] is given as “no binding”; in experiment [2] it was “binds”; in experiment [3], “no binding”.

In the case of “CARD domain of caspase-1 (from UniProt P29466 1-91) (domain or fragment)”, in experiment [1], the binding entry is “binds”. “CARD domain of ASC (apoptosis-associated speck-like protein containing a CARD) (from UniProt Q9ULZ3 107-195) (domain or fragment)”: the binding entry in experiment [2] is recorded as “binds”.

B1: CARD domain of NLRP1 (domain or fragment, UniProt Q9C000 1374-1463)
chain: DAPQLLHFVDQYREQLIARVTSVEVVLDKLHGQVLSQEQYERVLAENTRPSQMRKLFSLSQSWDRKCKDGLYQALKETHPHLIMELWEKG
For the molecule B1, the binding entry is given as “binds” in experiment [1], “no binding” in experiment [2] and “binds” in experiment [3].

B2: CARD domain of caspase-1, P29466 1-91 (domain or fragment)
chain: MADKVLKEKRKLFIRSMGEGTINGLLDELLQTRVLNKEEMEKVKRENATVMDKTRALIDSVIPKGAQACQICITYICEEDSYLAGTLGLSA
Regarding B2, the binding entry in experiment [4] is “binds”.
